# Reference: the supplement of paper PMC3334620
# Over roughly 33,000 sequences, “E-score (-0.5 to 0.5)” has its median near -0.041; the highest 2% begin near 0.37. This is one part of the list.
# Molecular target: T1, Ecm22 (UniProt Q05958)
# T1 sequence: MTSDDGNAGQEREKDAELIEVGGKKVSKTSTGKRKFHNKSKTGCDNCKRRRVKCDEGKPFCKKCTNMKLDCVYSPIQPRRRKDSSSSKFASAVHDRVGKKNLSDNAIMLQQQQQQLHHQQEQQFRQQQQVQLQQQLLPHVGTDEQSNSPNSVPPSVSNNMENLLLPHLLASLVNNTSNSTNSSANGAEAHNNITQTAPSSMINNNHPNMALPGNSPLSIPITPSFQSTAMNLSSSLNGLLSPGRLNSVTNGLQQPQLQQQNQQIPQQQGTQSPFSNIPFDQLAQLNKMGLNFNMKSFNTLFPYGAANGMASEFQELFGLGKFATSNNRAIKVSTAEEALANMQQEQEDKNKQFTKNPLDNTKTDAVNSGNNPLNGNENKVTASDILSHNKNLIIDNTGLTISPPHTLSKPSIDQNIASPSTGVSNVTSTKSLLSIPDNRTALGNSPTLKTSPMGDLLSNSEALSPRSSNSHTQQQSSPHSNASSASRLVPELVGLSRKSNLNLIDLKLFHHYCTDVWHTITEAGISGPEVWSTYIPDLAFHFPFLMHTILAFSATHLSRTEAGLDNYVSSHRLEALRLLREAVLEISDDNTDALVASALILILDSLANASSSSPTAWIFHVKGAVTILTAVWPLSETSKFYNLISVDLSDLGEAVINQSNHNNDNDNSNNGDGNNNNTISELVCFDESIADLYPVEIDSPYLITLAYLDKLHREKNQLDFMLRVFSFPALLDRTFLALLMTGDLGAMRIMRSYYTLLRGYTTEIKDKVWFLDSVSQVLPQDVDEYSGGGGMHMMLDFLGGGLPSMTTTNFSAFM
# Assay: PBM E-score (8-mer binding enrichment) (E-score (-0.5 to 0.5)); higher = stronger / more preferred TF binding; most listed sequences are background and not binding sites
# Details: protein concentration: 200 nM; construct: GST-full length
# Method in brief: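 GST-tagged yeast TFs (full-length or DNA-binding domain) were made by PURExpress in vitro transcription/translation and applied at about 100-200 nM to universal all-10-mer Agilent arrays. The arrays were made double-stranded by primer extension, on fresh or once-stripped slides. Bound protein was detected with fluorescent anti-GST, and scans were normalised with masliner. Each ungapped eight-base word, pooled with its reverse complement, received an E-score (modified Wilcoxon-Mann-Whitney statistic) from the Universal PBM Analysis Suite.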
row,Sequence,PBM E-score
1,GACGATGA,-0.0197
2,CCGCGTTC,0.181
3,CGCGATGC,0.193
4,CTTCTCCA,-0.225
5,AGTTCCCA,0.0586
6,AGGGTCCG,0.0934
7,ACAGGTGA,-0.231
8,CATATCGG,-0.151
9,TGTGTCAA,-0.0896
10,CAGGACGC,-0.072
11,CAAATATA,-0.0522
12,ACTTCTCG,0.256
13,AACTCGTC,0.102
14,GGATTCGA,-0.188
15,AAGTTGAG,0.0476
16,AAGACTGT,-0.0946
17,ACGAAACC,0.33
18,CAGGTCGA,-0.145
19,GCACCGAA,0.148
20,AATTCGAG,0.0674
21,CCATTTAA,-0.113
22,AGAAAAAA,-0.118
23,ATCCTTGG,-0.152
24,CACTCAGC,-0.203
25,CAGGGTTC,-0.0501

row,Sequence,PBM E-score
1,CATTGGGG,-0.281
2,AAAGCGAA,0.133
3,ATCCATTC,0.192
4,AGTCTAGG,-0.141
5,AGGGGCAA,-0.111
6,AGTGTTGA,-0.109
7,AAGTGATG,-0.116
8,TATTTAAA,0.132
9,GTAAGACA,0.0839
10,AATTGCAC,-0.0277
11,AGTTCCAA,-0.0699
12,GGTATTAC,0.122
13,GGGACCGA,0.269
14,CGTACTGC,0.291
15,AATACCCA,-0.0503
16,AAACAAGG,-0.244
17,AGCGGTGA,-0.0725
18,AGTAATAA,0.00504
19,ACTAAGAG,-0.0045
20,AGGCCGTA,0.384
21,CGCATGCA,0.0885
22,AGAAAGAC,-0.0342
23,GAAATGCC,-0.0167
24,GATTTCGA,0.00622
25,CAGAACAG,-0.127

row,Sequence,PBM E-score
1,CCCGGGAG,-0.331
2,CAGTACAC,-0.00959
3,CTACATCC,-0.171
4,CATAAGTC,-0.0161
5,AATAGTGC,-0.00076
6,GGACGTCC,-0.103
7,CCCCAACC,-0.176
8,GACGTGCC,-0.161
9,TCCCTGCA,-0.111
10,ATGGCCTA,-0.0123
11,AGGGGGTC,-0.228
12,GTTGAGAA,-0.24
13,ATTAACGG,0.226
14,GTGTCAGA,-0.0914
15,ACTGCTCT,-0.148
16,GTACTGCA,0.0571
17,GACCAATC,-0.144
18,AAGAGGAT,-0.177
19,ACAAGATC,-0.0608
20,CTATGCAG,-0.0753
21,AAAATTGT,-0.0489
22,AGGAACAC,-0.0177
23,AGTCATTC,-0.116
24,ATGCGACG,0.294
25,CTTACGAA,0.391

row,Sequence,PBM E-score
1,TACTGGCA,-0.17
2,GAGGGCAA,-0.0698
3,TACTCGGA,0.212
4,CACCTAGA,-0.055
5,AACCTACA,-0.0586
6,CGATGGAA,0.0222
7,AACACTGG,-0.0431
8,ACTCTTCC,-0.15
9,ATTCATCA,-0.0422
10,ACAGCCAG,-0.019
11,GAGTAGAA,0.0393
12,GAAGACCA,-0.0642
13,ATAAGAGC,0.111
14,CGGAAGGC,-0.306
15,ACGCGGCC,-0.0158
16,AGGTAGTA,-0.0441
17,CAGCCCGA,-0.153
18,ACGCAGCG,0.0255
19,GTATGTCA,0.0795
20,GAGCAGCC,-0.0218
21,GCGCACCA,0.0385
22,CCTGCTAA,-0.0845
23,AGCCGTAA,0.153
24,TCTAAACA,0.00509
25,ATAAAGTG,0.052

row,Sequence,PBM E-score
1,CCTAGGAA,-0.188
2,GATGTCTA,0.0976
3,CTGAAGCC,-0.103
4,AATGGAAT,-0.205
5,CCTTTACG,0.329
6,CTGACTCA,-0.265
7,CAGTACGC,0.06
8,ACTAGATA,0.114
9,CAATGTGG,-0.15
10,ATAGTTTC,-0.0352
11,GGCGAGAC,-0.0399
12,ATTTTGTC,-0.0711
13,AAGTTATT,0.0823
14,CAGTCGAA,-0.0374
15,GATCTGAA,-0.12
16,GGCCATCA,-0.203
17,ACCTTCAT,-0.11
18,ACGCTAAA,0.0551
19,AATACTCC,-0.103
20,CAGTGCCC,-0.043
21,GAACTAAC,0.0769
22,CGTCGGGC,-0.107
23,CTTATCCC,-0.0938
24,CCTTTCCA,-0.141
25,CGATAACC,0.219

row,Sequence,PBM E-score
1,GCCTCTAA,-0.156
2,GGTCAGAC,-0.348
3,ATCCATCA,-0.0518
4,GACCTTTA,0.074
5,GCACGGGA,0.0895
6,CTGCCCGC,-0.1
7,CGGTTATA,0.285
8,GAAGCGTA,0.214
9,ACTGAGGC,-0.15
10,AACTGGAT,-0.0918
11,AATCTATC,-0.129
12,ATGCAAGA,-0.229
13,ACCAGGCG,-0.16
14,GAAGTCTA,-0.162
15,AGGATAAT,0.0945
16,AGCATCGA,-0.0129
17,AACATCTT,-0.0882
18,TGTGCGAA,0.127
19,CCATTAAG,-0.0901
20,AAAACATT,-0.0377
21,GCAATGAC,-0.141
22,CGGTAGTC,-0.0257
23,TCCCACAA,-0.17
24,TAATAAGA,-0.0203
25,CTTATTCA,-0.134

row,Sequence,PBM E-score
1,ATTAAAAT,-0.133
2,ATCCCTGG,-0.246
3,CGGGACTC,-0.0155
4,AGAAATAT,0.112
5,CGGAGTAA,0.0339
6,GACGTGGC,-0.228
7,CGTCGAGA,0.167
8,AATAACTA,0.0409
9,AAACACGC,0.00946
10,GACCTCTA,-0.0204
11,CAAGTAGG,-0.203
12,GACGATCA,-0.0466
13,GTCATAAA,-0.00245
14,ACGTCGCG,0.162
15,GCTTTGGA,0.0385
16,AACATCGC,-0.171
17,AATTGGAT,-0.154
18,CAACTCCA,-0.306
19,GATCAACA,-0.0756
20,CGTGAGAC,-0.0669
21,CACGAGCA,0.0712
22,AAACCTGG,-0.231
